# The list shows a part of the results.
# System: PfSIP2 AP2 domain 1 (GST-tagged)
# Test: gcPBM binding intensity (ln(normalized median fluorescence intensity)); higher = stronger DNA binding
# Procedure, shortened: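 Binding intensity values are the highest Masliner-normalised natural-log median intensity among replicate spots of either probe orientation. The binding step lasted 1 h in 1× PBS with 1% milk, 0.2 mg/ml BSA, 0.5% salmon testes DNA and 0.03% Triton X-100, using GST-tagged P. falciparum DNA-binding domains expressed in E. coli on an Agilent 4 × 180k array of primer-extended double-stranded 36-bp intergenic genomic probes plus negative controls. Alexa488 anti-GST antibody and a 488 nm scan detected bound protein.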
row,Sequence,gcPBM binding intensity (ln)
1,TTTTAAATATGCAGATGTACATTATAATGTTTTATT [XGTACX_site2079],7.07
2,TACATATTTTTATATACACACAATAATTATTATAAA [CACACA_site1659],7.17
3,GATATGTACTAATACACACACATATAGATTTATATA [CACACA_site6610],7.23
4,TATATTTATTATAACACACACATATATATATTATAT [CACACA_site1061],7.29
5,AGGCATAATTAAAAGTAACAATTATGGAAACGGAGT [GTGCAC_negctrl_site623],7.19
6,TTTATTTATTATTAAAGTACTAAATTATATTATTAT [XGTACX_site2565],6.92
7,AAAAAAAAAAAAAACACACACATGCACCTCATATTA [CACACA_site556],11.4
8,AAAAAAAAAAAAAAATGTACATATAAATAAATATAT [XGTACX_site7248],7.15
9,TAATATCCATATAAAACACACATCAAGGTTGTTAAC [CACACA_site175],6.73
10,ACAACATAGAGGGGCACACACATATATACATAAAAA [CACACA_site6954],8.02
11,TATGTGCACCCATATACACACACAAATACAATGATA [CACACA_site8295],12.3
12,AATTCATATACAAAAAGTACAAACGAAAAATAAAAA [XGTACX_site2900],7.09
13,ATGTTTTATATTATTAATATATATATATATATATAT [CACACA_negctrl_site331],9.05
14,GTTATATAAAAATATTGTACATTCTATATAAAGTCA [XGTACX_site4418],6.95
15,AATCTAATTAAAATCACACATATATTCGTCGTAATA [CACACA_site5855],6.71
16,AAAAAATTAACGAGTGCACACATATTTAGATAAAAT [CACACA_site8958],10.6
17,ATATATATATATATAACACACGTGTATTTATCTGTA [CACACA_site5922],9.33
18,ATTCAAAAAAAATCAACACACAGTTACATAGCTCAA [CACACA_site2234],6.91
19,ATTCCATAAGTAAACACACAAATGCCAAAATTTTAT [CACACA_site7491],7.12

row,Sequence,gcPBM binding intensity (ln)
1,ATATATATATATATGTGTACACAAAAAATATTATAT [XGTACX_site5741],9.27
2,GCACATATATATGAAACACACATGGAAACATCTCTT [CACACA_site3966],7.06
3,ATGGAAAAAAAGCATTGTACATTTAAAGAAAAACAG [XGTACX_site6639],7.42
4,TATTATATTTGTATGTGTACTTATATGGTTGTAATA [XGTACX_site4548],7.2
5,AACGAAAACACTACGTGTACCAAATGTCCTGCCAAC [XGTACX_site5735],6.67
6,AAATATTATCAAACATAAATTATTTTTATCCGTATA [CACACA_negctrl_site771],6.64
7,AATGTATATTATTGCACACATATATAAAATTATGCT [CACACA_site1096],7.39
8,ATATATGTTAATAATTGTACAAATCGATAATATATA [XGTACX_site5076],7.04
9,TCTCTAATTTTTAATACACACAAATAAATAAATAAA [CACACA_site216],7.14
10,AAAAAAATATAGATCTGTACATATATAAATATATGT [XGTACX_site511],6.91
11,ATTTGTGAATATATTCGGTGAACTTTGTTAACACAT [XGTACX_negctrl_site445],6.8
12,ATCTCTATGATATATACACACAAATATACAAAAAAA [CACACA_site6605],6.97
13,GTATGAAATTATAATAGTACATATAAATAAAAAAAA [XGTACX_site8955],6.89
14,TATATATAATATATATATATGGAAATTCTTTTAAAT [XGTACX_negctrl_site50],7.64
15,TGTATTATATGTAAATGTACATTTAATATTTTATAT [XGTACX_site4461],7.13
16,ATATAAGGATAACCTAGTACATATTATATGAAACAA [XGTACX_site8459],6.93
17,TACGGTAAATAGTGTTGTACGATACAATTGTTTTCT [XGTACX_site8118],6.66
18,AAGGGGAAAAAAAAAAGTACACAAACATAGGATAAT [XGTACX_site377],7.43
19,CAATTAAAATGCAACGGTACACATAAAAAAAATAAA [XGTACX_site6216],6.97

row,Sequence,gcPBM binding intensity (ln)
1,AAAATAAATAAATAAATATATATATATATATATATA [TGCATGCA_negctrl_site558],9.76
2,CCACAAGTATATAGTAGTACAATTTTTTTCTCTTTA [XGTACX_site4403],6.9
3,TTTTTTTTATTTTGTTGTACGCTTATTTGTATATAT [XGTACX_site7325],7.54
4,TTTATGTGTTATAAATGTACATAATATAATTCGTAT [XGTACX_site3845],7.01
5,TTATCTATAAATACGAGTACGCAAAATCATATAATA [XGTACX_site2447],7.03
6,TTTTTATAAAATTTTATGAGCTCGGAAAAAATAAAC [GTGCAC_negctrl_site637],7.66
7,TTTTAATATTAAGATGTCTTTTACGTTTATTTTGTA [CACACA_negctrl_site765],6.92
8,ATTTACGCGCTTATTACACACACATACAAATAAGGA [CACACA_site9157],7.33
9,TAATTATTTGCCCTTACTCTGAACATTCGGAATTTA [CACACA_negctrl_site1278],6.91
10,ATCTGCATATATATATGTACATATTTTAGAATGCAC [XGTACX_site708],9.36
11,TTCTTTTTAAATTACACACACATATAAATATGTATA [CACACA_site7618],7.37
12,TAATAAATAATGGTTACACACAAAATATAAAACTTA [CACACA_site3544],6.86
13,AATTATAAATCTTGCACACAAAAAAAATAATAAAAA [CACACA_site2434],7.15
14,TAAACACATATATAGACATGCAACTAGTTTTTATAA [TGCATGCA_site474],6.96
15,AAATCTTTGTGTGGATGTACTTTTATAAAAAAGAAT [XGTACX_site3830],7.11
16,TCTGTTCTTTTTTAATGTACAAGAAATATAAAATTC [XGTACX_site3600],7.19
17,AATTTTTAGTATATAACATAAAATAAAATAAAATAA [GTGCAC_negctrl_site696],7.24
18,TTATTTTTTTTTTTTTGTACACAATTTGACACATTA [XGTACX_site7983],7.33

# Source: the supplement of paper PMC11417369
